PubChem BioAssay AID1347073 (National Center for Advancing Translational Sciences (NCATS), 2019)
Out of some 45,000 compounds screened, about 200 (0.44%) were called active. Another 7% or so got no clear call; they are omitted. Calls come from the whole dose curve; as a rule, active = well fitted activation curve with a large enough effect; inconclusive = small, poorly fitted or top-dose-only effect; inactive = no such curve, though single readings can be large or run the other way. The list shows a part of the results.

assay: qHTS of TDP-43 Inhibitors: NCGC Sytravon Library Screen; settings: yeast TDP-43 toxicity rescue, BacTiter-Glo growth, 24 h; series mostly up to 46.1 µM; growth rescue (activation): at the top concentration; note: 0% is about no effect; nearly all actives have a fitted effect of over 55% in size
In short: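 TDP-43-expressing yeast, pregrown in raffinose, seeded at OD600 0.02 in galactose medium with compound for 24 hr at 30 deg C. Growth read by BacTiter-Glo luminescence, so rescue of toxicity appears as activation.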

SMILES	growth rescue (activation)
Cc1cccc(OCC(=O)O/N=C(\N)c2ccncc2)c1	inactive: 31.3%
O=C(CCc1ccccc1)Nc1nc2n(n1)C(c1ccc(Cl)cc1)CC(=O)N2 (centres undefined)	inactive: -17.5%
CCCCC1=NN(C(=O)c2ccco2)C(O)(C(F)(F)F)C1 (centres undefined)	inactive: 20%
O=C(c1cccc(OC2CCN(Cc3ccc(F)cc3Cl)CC2)c1)N1CCCC1	inactive: -1.03%
C#CCN1C(=O)S/C(=C/c2cc(C)n(CC)c2C)C1=O	inactive: -14.9%
O=C(O)Cc1sc(Nc2ccc(Cl)cc2)nc1-c1cccs1	inactive: 17.7%
CCc1nc2c(OCC(=O)c3ccc(F)cc3)cccn2c1N(C)C(=O)COc1ccccc1	inactive: 7.19%
COc1ccc(OC)c(Nc2c3ccccc3nc3ccccc23)c1	inactive: -7.41%
Cc1ccc2c(c1)c(N=O)c(O)n2Cc1ccc(Cl)cc1	inactive: 3.94%
NS(=O)(=O)c1ccc(CCn2c(=S)[nH]c3ccccc3c2=O)cc1	inactive: 28.7%
O=C(Nc1cccc([N+](=O)[O-])c1)Nc1cccc([N+](=O)[O-])c1	inactive: -0.419%
Cc1c(Cl)cccc1NC(=O)CNc1ccccc1F	inactive: 22.3%
COc1ccc2c(C=O)cn(C)c2c1	inactive: 13.3%
CCOC(=O)/C(=N\Nc1ccccc1Cl)N1CC(C)OC(C)C1 (centres undefined)	inactive: 27.5%
COc1ccc(CC(=O)N/N=C(/C)CC(=O)N(C)c2ccccc2)cc1	inactive: 8.57%
NS(=O)(=O)c1ccc(N=Cc2c(O)n(-c3nccs3)c(=O)c3ccccc23)cc1	inactive: 2.91%
CN(C(=O)C1CCN(S(=O)(=O)c2ccccc2[N+](=O)[O-])CC1)C1CCCCC1	inactive: -1.89%
CC[n+]1oc(-c2ccccc2)cc1C	inactive: 12.6%
COc1ccc(/C=N/N=C2/NC(=O)C(CC(=O)O)S2)cc1OCc1ccc(Cl)cc1Cl (centres undefined)	inactive: 15.4%
O=C(NCc1ccc2c(c1)OCO2)c1ccc(CS(=O)(=O)Cc2cccc(Cl)c2)o1	inactive: 20.1%
CC(C)(C)c1ccc(C(=O)NCCC(=O)N2CCCC2)cc1	inactive: 10.7%
CCC(CC)C(=O)N1CCN(Cc2nc3ccccc3c(=O)[nH]2)CC1	inactive: 8.93%
CN(C)c1nc(Oc2ccc(=O)[nH]n2)nc(N2CCOCC2)n1	inactive: 5.81%
CCN(CC)c1ccc(/C=N/NC(=O)c2ccc3nc[nH]c3c2)cc1	inactive: 17.4%
CCCC(CNC(=O)COC(=O)C1=NNC(=O)CC1)c1ccc(Cl)cc1Cl (centres undefined)	inactive: 13.3%
CC(C)CN(C(=O)CN(C)CC(=O)Nc1ccc(Cl)c(C(F)(F)F)c1)c1c(N)n(CC(C)C)c(=O)[nH]c1=O	inactive: 4.67%
O=C1C(Cl)=C(NC2CCCCC2)C(=O)N1c1ccc(Cl)cc1	inactive: 11.1%

SMILES	growth rescue (activation)
CC(C)n1c(NCc2ccc(Cl)cc2)nc2ccccc21	inactive: -10.9%
O=C(Cc1n[nH]c(=O)c2ccccc12)NCc1ccc(Cl)cc1	inactive: 19.8%
CCNC(=O)C1(C)CCCN(Cc2noc(-c3c(C)noc3C)n2)C1 (centres undefined)	inactive: 7.77%
O=C(NNC(=O)c1cc(-c2ccco2)nc2ccccc12)c1ccccc1	inactive: -4.97%
O=C(Nc1ccc(N2CCCC2)cc1)C(c1ccccc1)c1ccccc1	inactive: 30.7%
Cc1ccc2cc(C#N)c(SCc3nnc(-c4ccccc4[N+](=O)[O-])o3)nc2c1	inactive: 7.19%
Cn1nnnc1NCc1cccc(Cl)c1Cl	inactive: -4.99%
CCOc1ccc(NC(=O)CCCCn2c(=O)[nH]c3ccsc3c2=O)cc1	inactive: 10.5%
CC(=O)NCCNC(=O)c1ccc(CSc2ccc(Cl)cc2)cc1	inactive: 3.93%
COc1ccc(C(=O)NCC(=O)OCc2ccc(Br)cc2)cc1	inactive: 4.81%
CC(C)(C)c1ccc(C(=O)N2CCC2(C)C(=O)NCCC#N)cc1 (centres undefined)	inactive: 6.92%
Cc1cccc(NC(=S)N(CCc2ccncc2)C(C)C)c1C	inactive: -3.75%
COc1ccc(/C(O)=C2/C(=O)C(=O)N(CCCN(C)C)C2c2cccc(Cl)c2)cc1OC (centres undefined)	inactive: 9.92%
COc1cc2c(cc1NC(=O)C(C)OC(=O)/C=C/c1ccc(OC(F)F)cc1)oc1ccccc12 (centres undefined)	inactive: 5.95%
O=C(c1ccccc1)N1CN2CN(C(=O)c3ccccc3)CC([N+](=O)[O-])(C2)C1	inactive: 30.7%
CC(=O)c1ccc(N2CCN(C(=O)Nc3ccc(C)cc3)CC2)cc1	inactive: 2.48%
Cc1cc(NC(=O)COC(=O)CNS(=O)(=O)c2ccc(C)c(C)c2)no1	inactive: -5.93%
CC(NC(=O)COC(=O)c1ccc2ccccc2n1)c1ccccc1 (centres undefined)	inactive: 20.4%
O=C(COC(=O)Cc1ccsc1)Nc1ccc(S(=O)(=O)N2CCOCC2)cc1	inactive: -7.45%
COc1ccc(NC(=O)CSc2nnc(N)s2)cc1	inactive: 18.9%
CC(C)NC(=O)CC(=O)NN=C1CCCCC1	inactive: 8.8%
Fc1ccccc1COc1cccc2cccnc12	inactive: 12.3%
CCCCOc1cccc(C(=O)NC(=S)Nc2cccc(C(F)(F)F)c2)c1	inactive: -3.31%
O=C(CSc1ccc2c(c1)OCCO2)NCc1ccccc1	inactive: -1.66%
COc1ccc(CCN2CC(C(=O)NCc3nc(C)c(C)s3)CCC2=O)cc1 (centres undefined)	inactive: -2.1%
O=C(COc1nsnc1N1CCOCC1)Nc1ccc([N+](=O)[O-])cc1	inactive: -8.99%
Cc1ccccc1NC(=O)Nc1nc(C2CCC(=O)N2)cs1 (centres undefined)	inactive: 3.37%
